Results: PubChem BioAssay (NCATS)
“And” between values parts separate entries of the source, which are not always exact repeats. Identical values can stand only once. Inconclusive means that the source gave no clear call. Such entries were picked first, then a sample of the others. For some assays here: Potencies of inconclusive entries are doubtful fits and often do not repeat. The source made the active and inactive calls. Unless noted, the call rests on the fitted dose curve; in most records, active means well fitted curve in the direction sought with a large enough effect; inconclusive means small, poorly fitted or top-dose-only effect, or another doubt; inactive means no such curve, though single readings can be large; an effect the other way counts as inactive or inconclusive.

Legend:
[1] = Cell Viability - H-4-II-E (AID 543);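 further: potency means the concentration at half of the fitted maximal effect; cells exposed to compound for 40 hours; nearly all actives have a fitted effect of over 35% in size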
Method in brief: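 qHTS, rat hepatoma H-4-II-E, 1500 cells/well; 40 hr compound exposure, 37 °C; CellTiter-Glo ATP luminescence after 20 min RT; AC50 by standard Hill fit.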

[2] = Cell Viability - LYMP2-004 (AID 966); settings: LYMP2-004 lymphoblastoid cell viability, qHTS; activity change, negative = cytotoxicity: at 92.2 µM (top of the series); further: potency means the concentration at half of the fitted maximal effect; nearly all actives have a fitted effect of over 65% in size
Method in brief: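 Luminescent ATP read-out (CellTiter-Glo, 30 min RT) after 24 hr compound exposure at 37 C; 2500 lymphoblastoid cells/well, complete medium. Decrease in ATP = cytotoxicity; AC50 from standard Hill model.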

[3] = Cell Viability - LYMP2-005 (AID 967); further: potency means the concentration at half of the fitted maximal effect
Method in brief: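 LYMP2-005 human lymphoblastoid cells (2500/well) were treated with compounds for 24 h at 37 C. Intracellular ATP was then measured by CellTiter-Glo luminescence after 30 min at room temperature. AC50 values came from Hill-equation fits of qHTS concentration-response data.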

[4] = Cell Viability - LYMP2-017 (AID 972); further: potency means the concentration at half of the fitted maximal effect; nearly all actives have a fitted effect of over 55% in size
Method in brief: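 Luminescent ATP read-out (CellTiter-Glo, 30 min RT) reports viable cell number. Cells: human lymphoblastoid line, 2500 per well, 5 hr preincubation, 24 hr compound exposure at 37 C. AC50 is derived from qHTS concentration-response data using the standard Hill model.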

[5] = Cell Viability - LYMP2-023 (AID 975); further: potency means the concentration at half of the fitted maximal effect; nearly all actives have a fitted effect of over 55% in size
Method in brief: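 CellTiter-Glo luminescence after 30 min at room temperature; decrease in intracellular ATP reflects toxicity. Cells: human lymphoblastoid line, 2500/well, 24 hr compound exposure at 37 C. AC50 fitted to standard Hill equation from concentration-response.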

[6] = Cell Viability - LYMP2-025 (AID 976); further: potency means the concentration at half of the fitted maximal effect
Method in brief: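 CellTiter-Glo luminescence (cellular ATP) after 24 h compound exposure at 37 C; LYMP2-025 human lymphoblastoid cells, 2500/well, complete medium. Tetraoctylammonium bromide positive control. AC50 by Hill equation fit of qHTS concentration-response.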

[7] = Cell Viability - LYMP2-002 (AID 977); further: potency means the concentration at half of the fitted maximal effect
Method in brief: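 Human lymphoblastoid cells (2500/well) in complete medium were preincubated 5 hr at 37 C, then exposed to compounds for 24 hr at 37 C. Intracellular ATP was read by CellTiter-Glo luminescence; AC50 came from Hill-equation concentration-response fits.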

[8] = Cell Viability - LYMP2-006 (AID 978); further: potency means the concentration at half of the fitted maximal effect; nearly all actives have a fitted effect of over 60% in size
Method in brief: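 Potency values are Hill-fit AC50s for decreases in intracellular ATP (CellTiter-Glo luminescence). LYMP2-006 lymphoblastoid cells, 2500 per well, were exposed to compound in complete culture medium for 24 hr at 37 C.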

[9] = Cell Viability - LYMP2-008 (AID 980); further: potency means the concentration at half of the fitted maximal effect; nearly all actives have a fitted effect of over 60% in size
Method in brief: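 Luminescent ATP read-out (CellTiter-Glo, 30 min RT) after 24 hr compound exposure at 37 C of human lymphoblastoid cells in complete medium. Decrease in ATP taken as cytotoxicity; AC50 derived by standard Hill fit of qHTS concentration-response data.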

[10] = Cell Viability - LYMP2-014 (AID 983); further: potency means the concentration at half of the fitted maximal effect; nearly all actives have a fitted effect of over 50% in size
Method in brief: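 2500 cells/well, 5 hr 37 C; cpd 24 hr 37 C, complete medium; CellTiter-Glo 30 min RT, luminescence; ATP loss = toxicity; AC50 via Hill eqn; tetraoctylammonium bromide positive control.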

[11] = Cell Viability - LYMP2-018 (AID 985); further: potency means the concentration at half of the fitted maximal effect; nearly all actives have a fitted effect of over 50% in size
Method in brief: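 2500 cells/well; 5 hr 37 C; cmpd 24 hr 37 C, complete medium; CellTiter-Glo 30 min RT; luminescence. Tetraoctylammonium bromide positive control. AC50 via Hill fit.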

[12] = target: Estrogen receptor (Homo sapiens) (UniProt P03372); assay: qHTS assay for small molecule agonists of estrogen receptor alpha signaling (AID 588514; calls by dose curve;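 further: 0% = vehicle only and 100% = reference agonist; nearly all actives have a fitted effect of over 70% in size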); settings: ER-alpha-UAS-bla HEK293, beta-lactamase ratio, 18 h; activation: at 76.8 µM (top of the series), percent of full estradiol response, vehicle zero
Sequence of UniProt P03372 (P03372 whole entry, looked up): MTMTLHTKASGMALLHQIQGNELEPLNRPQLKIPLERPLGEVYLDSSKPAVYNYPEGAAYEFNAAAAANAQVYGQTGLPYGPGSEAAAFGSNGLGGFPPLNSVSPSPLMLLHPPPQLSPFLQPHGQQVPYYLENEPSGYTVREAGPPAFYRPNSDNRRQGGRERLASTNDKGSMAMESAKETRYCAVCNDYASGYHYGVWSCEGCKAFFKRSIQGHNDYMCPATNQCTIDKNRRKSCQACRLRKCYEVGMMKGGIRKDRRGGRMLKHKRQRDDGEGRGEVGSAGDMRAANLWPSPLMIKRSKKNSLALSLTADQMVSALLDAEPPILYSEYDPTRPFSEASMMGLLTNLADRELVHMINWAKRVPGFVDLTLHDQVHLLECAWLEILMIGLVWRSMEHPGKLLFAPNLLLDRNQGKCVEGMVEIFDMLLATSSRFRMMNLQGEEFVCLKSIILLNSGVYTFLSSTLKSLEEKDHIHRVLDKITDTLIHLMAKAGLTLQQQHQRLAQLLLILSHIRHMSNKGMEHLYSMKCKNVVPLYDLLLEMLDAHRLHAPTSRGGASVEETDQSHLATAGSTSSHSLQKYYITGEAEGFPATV
Method in brief: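 Read-out: CCF4 fluorescence from a beta-lactamase reporter in ER-alpha-UAS-bla HEK 293 cells after 18 hrs of compound exposure at 37 C. Normalized to 20 nM 17-beta-estradiol (100%) and DMSO (0%).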

[13] = target: Peroxisome proliferator-activated receptor delta (Homo sapiens) (UniProt Q03181); assay: qHTS assay for small molecule antagonists of peroxisome proliferator-activated receptor delta signaling (AID 588535; active means well fitted inhibition curve with a large enough effect in the signal ratio, with a control signal flat, not every such curve was filed as active; inconclusive means small, poorly fitted or top-dose-only effect, or effect the other way, or a change in a side signal; inactive means no such curve, though single readings can be large or run the other way; the % refers to the signal ratio); settings: HEK293T PPARd-UAS-bla, beta-lactamase FRET ratio, 18 h
Sequence of UniProt Q03181 (Q03181 whole entry, looked up): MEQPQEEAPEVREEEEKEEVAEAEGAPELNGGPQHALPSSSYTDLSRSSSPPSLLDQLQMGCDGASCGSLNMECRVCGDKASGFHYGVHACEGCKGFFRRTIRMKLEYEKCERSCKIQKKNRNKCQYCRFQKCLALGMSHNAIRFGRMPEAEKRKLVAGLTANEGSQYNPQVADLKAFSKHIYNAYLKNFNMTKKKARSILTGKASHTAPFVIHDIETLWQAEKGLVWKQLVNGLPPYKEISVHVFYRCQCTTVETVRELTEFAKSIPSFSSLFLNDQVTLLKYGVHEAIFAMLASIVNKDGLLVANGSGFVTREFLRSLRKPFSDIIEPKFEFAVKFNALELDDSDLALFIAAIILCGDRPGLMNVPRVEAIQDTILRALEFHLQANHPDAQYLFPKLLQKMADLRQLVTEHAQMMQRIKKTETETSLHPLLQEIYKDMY
Method in brief: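 Antagonist-mode qHTS using GeneBLAzer PPAR-delta-UAS-bla HEK293T cells; compound exposure 18 hrs at 37 C over a titration. Ratiometric CCF4 fluorescence at 460/530 nm; concentration-response points fitted to the Hill equation.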

[14] = target: Peroxisome proliferator-activated receptor gamma (Homo sapiens) (UniProt P37231); assay: qHTS assay for small molecule agonists of peroxisome proliferator-activated receptor gamma signaling (AID 588536; active means well fitted curve in the direction sought with a large enough effect in the signal ratio, with a control signal flat, not every such curve was filed as active; inconclusive means small, poorly fitted or top-dose-only effect, or effect the other way, or a change in a side signal; inactive means no such curve, though single readings can be large or run the other way; the % refers to the signal ratio;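 further: 0% = DMSO basal wells and 100% = rosiglitazone at 2 µM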); settings: HEK293 PPARg-UAS-bla, beta-lactamase ratio, 16 h; activation: at 76.7 µM (top of the series), percent of rosiglitazone response, DMSO as zero unless noted
Method in brief: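 Cells were plated and held 6–6.5 h at 37 C, then compounds were added as a titration series. After a further 16 h, CCF4 dye was loaded for 2 h at room temperature and emission at 460/530 nm recorded.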

[15] = target: Peroxisome proliferator-activated receptor gamma (Homo sapiens) (UniProt P37231); assay: qHTS assay for small molecule antagonists of peroxisome proliferator-activated receptor gamma signaling (AID 588537; active means well fitted inhibition curve with a large enough effect in the signal ratio, with a control signal flat, not every such curve was filed as active; inconclusive means small, poorly fitted or top-dose-only effect, or effect the other way, or a change in a side signal; the % refers to the signal ratio; further: potency means the concentration at half of the fitted maximal effect;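 further: reporter cells co-stimulated with 50 nM rosiglitazone agonist during compound treatment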; on activity, negative = inhibition: % of control where 0% means no effect); settings: HEK293 PPARg-UAS-bla, beta-lactamase ratio, antagonist mode; activity, negative = inhibition: at 76.8 µM (top of the series)
Method in brief: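 Cell-based beta-lactamase assay; GW9662 served as the antagonist control. Stimulation used rosiglitazone, final 50 nM, 16 h, 37 C.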

[16] = target: Retinoic acid receptor RXR-alpha (Homo sapiens) (UniProt P19793); assay: qHTS assay for small molecule agonists of retinoid X receptor alpha signaling (AID 588544; calls by dose curve;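 further: 0% = DMSO basal wells and 100% = reference agonist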); settings: HEK293T RXRa-UAS-bla, beta-lactamase reporter, 18 h; activation: at 76.7 µM (top of the series) unless noted
Sequence of UniProt P19793 (P19793 whole entry, looked up): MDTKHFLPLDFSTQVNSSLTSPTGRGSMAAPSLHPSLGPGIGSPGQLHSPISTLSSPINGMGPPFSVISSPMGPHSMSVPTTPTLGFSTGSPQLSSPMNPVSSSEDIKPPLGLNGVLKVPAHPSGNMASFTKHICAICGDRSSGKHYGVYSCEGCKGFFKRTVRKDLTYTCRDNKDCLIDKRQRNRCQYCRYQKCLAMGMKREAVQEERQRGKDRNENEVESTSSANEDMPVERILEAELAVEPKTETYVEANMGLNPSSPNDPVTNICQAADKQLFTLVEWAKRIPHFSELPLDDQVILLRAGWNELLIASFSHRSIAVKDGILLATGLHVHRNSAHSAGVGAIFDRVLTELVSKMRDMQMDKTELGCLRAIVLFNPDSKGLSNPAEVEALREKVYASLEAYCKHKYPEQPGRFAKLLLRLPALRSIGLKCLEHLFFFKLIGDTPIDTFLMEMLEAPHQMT

[17] = target: Thyroid hormone receptor beta (Homo sapiens) (UniProt P10828); assay: qHTS assay for small molecule agonists of thyroid hormone receptor beta signaling (AID 588545; calls by dose curve); settings: TR-UAS-bla GripTite HEK 293, beta-lactamase ratio, agonist mode, 18 h; activation: at 76.7 µM, percent of T3 response, DMSO as zero
Sequence of UniProt P10828 (P10828 whole entry, looked up): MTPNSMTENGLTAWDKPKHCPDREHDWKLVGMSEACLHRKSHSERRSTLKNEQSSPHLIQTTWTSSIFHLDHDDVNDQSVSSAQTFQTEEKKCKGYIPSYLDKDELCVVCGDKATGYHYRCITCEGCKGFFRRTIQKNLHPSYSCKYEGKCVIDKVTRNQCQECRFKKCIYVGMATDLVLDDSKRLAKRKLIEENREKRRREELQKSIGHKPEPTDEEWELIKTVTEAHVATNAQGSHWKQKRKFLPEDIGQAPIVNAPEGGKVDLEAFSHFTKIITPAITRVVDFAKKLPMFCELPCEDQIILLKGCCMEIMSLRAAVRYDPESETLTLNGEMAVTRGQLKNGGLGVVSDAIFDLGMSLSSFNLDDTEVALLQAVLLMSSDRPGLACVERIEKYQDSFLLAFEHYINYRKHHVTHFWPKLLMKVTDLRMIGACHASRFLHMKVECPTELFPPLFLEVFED
Method in brief: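 Cells (2500/well) were seeded, incubated 4 hrs at 37 C, dosed with a compound series, incubated 18 hrs, loaded with CCF4 dye for 2 hrs at RT, then read for fluorescence. Data were scaled between DMSO (0%) and 10 nM T3 (100%).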

[18] = qHTS assay for small molecule agonists of the antioxidant response element (ARE) signaling pathway (AID 651741; active means well fitted activation curve with a large enough effect in the signal ratio; inconclusive means small, poorly fitted or top-dose-only effect, or effect the other way, or a change in a side signal; the % refers to the signal ratio; further: potency means the concentration at half of the fitted maximal effect); settings: HepG2 ARE-bla reporter, beta-lactamase FRET ratio, 16 h; activation: at 96 µM (top of the series) unless noted
Method in brief: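 Agonist activity is measured as ARE-driven beta-lactamase expression in a stable HepG2 reporter line, using 16 h compound treatment at 37 C and a FRET substrate fluorescence readout after 2 h.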

[19] = qHTS assay to identify small molecules that stimulate interleukin-8 (IL-8) secretion (AID 651758; active means well fitted activation curve with a large enough effect in the signal ratio; inconclusive means small, poorly fitted or top-dose-only effect, or effect the other way, or a change in a side signal; the % refers to the signal ratio; further: 0% is about no effect); settings: HTRF ratio (665/615); activation: at 92.2 µM (top of the series)
Method in brief: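 Secreted IL-8 measured homogeneously by TR-FRET (two labelled anti-IL-8 antibodies, 1-3 h at room temperature) after a 16 h, 37 C compound treatment of THP-1 cells at 2000 cells/well.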

[20] = qHTS assay for small molecule agonists of the antioxidant response element (ARE) signaling pathway measured by Nrf2-dependant transcriptional activity (AID 720636; active means well fitted curve in the direction sought with a large enough effect in the repeat runs; inconclusive means weak or mixed curves; inactive means no such curve, though single readings can be large; an effect the other way counts as inactive or inconclusive; further: potency means the concentration at half of the fitted maximal effect)
Method in brief: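 Attachment 6 hr at 37 C, then compound versus DMSO vehicle for 16 hr in ARE-luc HepG2 cells (1% dialyzed FBS); luminescence recorded 30 min after ONE-Glo addition at room temperature.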

[21] = Cell Viability - HUV-EC-C (AID 542);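 further: cells exposed to compound for 40 hours; on the % scale 0 is the no-effect control and ±100 the full control effect; nearly all actives have a fitted effect of over 35% in size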
Method in brief: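 Luminescent ATP read-out (CellTiter-Glo, 20 min room temperature) after 40 hr compound treatment of HUV-EC-C cells at 37 °C. Concentration-response data fitted with the standard Hill equation to give AC50; tamoxifen and doxorubicin served as positive controls.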

[22] = Cell Viability - LYMP2-013 (AID 970);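 further: 0% = DMSO only and full inhibition = tetraoctylammonium bromide control; nearly all actives have a fitted effect of over 55% in size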
Method in brief: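 CellTiter-Glo luminescence (cellular ATP) read after 30 min at RT. Cells: human lymphoblastoid line, 2500/well, 24 hr compound exposure at 37 C. Tetraoctylammonium bromide positive control; AC50 via standard Hill fit of qHTS titrations.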

[23] = target: Bile acid receptor (Homo sapiens) (UniProt Q96RI1); assay: qHTS assay for small molecule antagonists of farnesoid X receptor signaling (AID 588526; calls by dose curve; further: on the % scale 0 is the no-effect control and ±100 the full control effect); settings: HEK293T FXR-UAS-bla, beta-lactamase ratio, antagonist mode; activity change, negative = inhibition: at 76.7 µM (top of the series)
Sequence of UniProt Q96RI1 (Q96RI1 whole entry, looked up): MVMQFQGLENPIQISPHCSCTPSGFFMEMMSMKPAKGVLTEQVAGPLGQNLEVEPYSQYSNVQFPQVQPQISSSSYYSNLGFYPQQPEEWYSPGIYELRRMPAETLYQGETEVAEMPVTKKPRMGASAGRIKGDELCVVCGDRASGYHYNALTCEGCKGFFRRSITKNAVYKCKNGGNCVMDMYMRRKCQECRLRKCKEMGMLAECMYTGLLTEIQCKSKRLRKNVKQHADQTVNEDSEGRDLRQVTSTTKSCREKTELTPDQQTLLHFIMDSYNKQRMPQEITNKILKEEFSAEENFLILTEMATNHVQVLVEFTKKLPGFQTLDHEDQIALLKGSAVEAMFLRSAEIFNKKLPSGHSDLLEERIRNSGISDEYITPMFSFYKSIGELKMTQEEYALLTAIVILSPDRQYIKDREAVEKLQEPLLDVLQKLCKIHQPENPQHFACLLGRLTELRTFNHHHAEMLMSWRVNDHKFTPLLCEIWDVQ
Method in brief: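 Beta-lactamase reporter antagonist mode: HEK293T FXR-UAS-bla cells, titrated compound, CDCA stimulation, 16 h 37 C, CCF4 dye 2 h RT. Data normalized to CDCA 50 uM and DMSO; Hill-fit IC50.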

[24] = qHTS assay for small molecule disruptors of the mitochondrial membrane potential - 1 hr assay (AID 651754; calls by dose curve; further: on the % scale 0 is the no-effect control and ±100 the full control effect; nearly all actives have a fitted effect of over 35% in size); settings: ratio change, negative = depolarisation: at 92.2 µM (top of the series)
Method in brief: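 Read-out: dye fluorescence at 490 nm ex/535 nm em (monomers) and 540 nm ex/590 nm em (aggregates) in HepG2 cells. Compound exposure 1 hr at 37C, followed by 30 min dye loading.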

[25] = activity change, negative = inhibition: at 76.7 µM (top of the series) unless noted
Tags describe the fitted curve by direction and shape or compound fluorescence and quenching.

OC[P+](CO)(CO)CO
active: Potency [2] 20 µM | Potency [4] 12.6 µM | Potency [5] 25.1 µM | Potency [9] 39.8 µM | Potency [11] 7.94 µM | Potency [18] 37.6 µM and 30.6 µM
inactive: activity change, negative = inhibition ([13]; at 76.7 µM (top of the series)) -16.8% | Potency [14] | activation [17] -9.88% and -4.76% | Potency [19]
inconclusive: Potency [1] 50.1 µM [falling, partial curve] | Potency [3] 50.1 µM [cytotoxic, partial curve, poor fit] | Potency [6] 39.8 µM [cytotoxic, partial curve, poor fit] | Potency [7] 15.8 µM [cytotoxic, full curve, poor fit] | Potency [8] 39.8 µM [cytotoxic, partial curve] | Potency [10] 39.8 µM [cytotoxic, partial curve] | activation [12] 17.6% | activity change, negative = inhibition [13, 25] -69.9% | activity, negative = inhibition [15] 16.4% | activation [16] -18.9% and -31.5% | Potency [20] 68.6 µM [activator, partial curve, poor fit]

O=S(=O)(O)F
inactive: Potency [21] | Potency [22] | Potency [23] | Potency [13, 25] | Potency [24]
inconclusive: activation [12] 45.7% | Potency [15] 44.7 µM [activator, partial curve, poor fit] | activation [19] -9.25%
